PubChem BioAssay AID493208 (National Center for Advancing Translational Sciences (NCATS), 2011)
In all, about 44,000 compounds went through this assay and about 340 (0.77%) were called active. Not shown: some 5% with an inconclusive outcome. Calls come from the whole dose curve; as a rule, active = well fitted inhibition curve with a large enough effect; inconclusive = small, poorly fitted or top-dose-only effect; inactive = flat fitted curve, though single readings scatter. The list shows a part of the results.

test: Acumen qHTS Assay for Inhibitors of the mTORC1 Signaling Pathway in MEF (Tsc2-/-, p53-/-) Cells: Sytravon; conditions: phospho-rpS6 immunofluorescence/PI, 24 h; series mostly up to 38.3 µM; activity change, negative = inhibition: at the top concentration;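 note: plate controls were DMSO for no effect and rapamycin for full effect; nearly all actives have a fitted effect of over 50% in size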
How it was run: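 Cell-based qHTS: Tsc2-/- p53-/- MEF, 24 h cpd, 37 °C; fix/perm, anti-phospho-S6 Alexa-488 + PI; Acumen 488 nm scan; pS6/PI ratio, % positive cells; rapamycin 7.5 nM = inhibition ref; PI count = viability.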

Row | SMILES | activity change, negative = inhibition
1 | COc1ccc(Nc2oc(-c3ccc(COc4ccccc4)o3)nc2C#N)cc1 | inactive: -7.26%
2 | CCOc1ccccc1C(=O)Nc1cc(-c2nc3cccnc3s2)ccc1C | inactive: -3.15%
3 | Oc1cccc(Nc2cc(-c3ccccc3)ncn2)c1 | inactive: -0.775%
4 | CC(C)(C)C(=O)Nc1ccc2nc(SCCOc3ccccc3Cl)sc2c1 | inactive: -23.1%
5 | Cc1cccc(NC(=O)CN2C(=O)CC(c3ccccc3)Sc3ccccc32)c1 (stereo not drawn) | inactive: -3.12%
6 | Cc1ccccc1NC(=O)Cn1nnc(C(=O)NCc2cccs2)c1N | inactive: -9.37%
7 | Cc1ccc(NC(=O)CCc2c(C)nc3ncnn3c2C)cc1Cl | inactive: -11.8%
8 | Cc1ccc(CSc2nc3cc(C(=O)NC4CCCC4)ccc3c(=O)n2Cc2ccccc2)cc1 | inactive: 0.664%
9 | CCc1ccc(NS(=O)(=O)c2ccc(NC(=O)N3CCCC3)cc2)cc1 | inactive: 1.45%
10 | Cc1ccc(C)c(CSc2cn(CCNC(=O)c3cccs3)c3ccccc23)c1 | inactive: 6.55%
11 | CCc1ccc(NC(=O)Cn2nnc(C(=O)Nc3ccc(F)cc3)c2N)cc1 | inactive: 1.88%
12 | O=C(Nc1cccc(O)c1)c1cc(-c2ccccc2F)no1 | inactive: -1.13%
13 | CC(CNC(=O)c1csc2c1CCCCC2)c1ccccc1 (stereo not drawn) | inactive: -9.01%
14 | COc1ccc(CCN2C(=O)N(c3ccc(C)cc3)C(=O)C2CC(=O)Nc2ccc(OC)cc2)cc1 (stereo not drawn) | inactive: -0.536%
15 | O=C(NCc1cccc(Cl)c1)c1ccc2c(Cl)c3c(nc2c1)CCCC3 | inactive: -13.4%
16 | CCOC(=O)C1CCCN(C(=O)Cn2ncc3c4ccccc4n(C)c3c2=O)C1 (stereo not drawn) | inactive: -1.97%
17 | COc1cc(NC(=O)c2cc(S(=O)(=O)N3CCC(C)CC3)cn2C)cc(OC)c1OC | inactive: -6.04%
18 | COc1cc(O)ccc1-c1nc2cc(C)ccn2c1Nc1ccccc1C | inactive: 0.291%
19 | O=C(CSc1ncc(CO)n1Cc1ccc(F)cc1)NCc1ccco1 | inactive: -3.03%
20 | Cc1cccc2c(=O)cc(CSc3ccccc3NC(=O)c3cccc(Br)c3)[nH]c12 | inactive: 0.295%
21 | CCc1ccc(S(=O)(=O)Nc2cccc(-c3ccc(OC)nn3)c2)s1 | inactive: -0.892%
22 | COc1ccc(NC(=O)CSc2nc3nc(C)cc(C)n3n2)cc1OC | inactive: 12.8%
23 | CCOc1ccccc1NC(=O)NCc1noc2ccc(C)cc12 | inactive: -16.2%
24 | COc1cc(C(=O)NCC(c2ccc3c(c2)OCO3)N2CCN(C)CC2)cc(OC)c1OC (stereo not drawn) | inactive: -15.4%
25 | COc1cccc2c1cc1c(=O)n(CC(=O)NCc3ccc(N(C)C)cc3)nc(C)n12 | inactive: 3.66%

Row | SMILES | activity change, negative = inhibition
26 | CC(C)c1ccc2oc(-c3cc(NC(=O)c4cccnc4)ccc3Cl)nc2c1 | inactive: -13.2%
27 | Cc1ccc(N2CC(C(=O)NCc3nnnn3-c3ccc(C)c(C)c3)CC2=O)cc1C (stereo not drawn) | inactive: 1.86%
28 | O=c1n(Cc2ccc(Cl)cc2)nc2n1-c1ccccc1OC2 | inactive: -27.4%
29 | COc1cccc(NC(=O)c2sc3nc(C)c(C(=O)Nc4ccc(C)cc4C)c(-c4ccc(C)o4)c3c2N)c1 | inactive: -14.8%
30 | O=C(CSc1nc2ccccc2nc1Cc1ccc(Cl)cc1)N1CCN(c2ccccc2F)CC1 | inactive: -4.23%
31 | Cc1ccccc1OCC(=O)Nc1ccc2nc(SCCOc3ccccc3)sc2c1 | inactive: 0.0686%
32 | Cc1ccc(C)c(N2CCN(C(=O)CCCCCn3c(=O)[nH]c4ccccc4c3=O)CC2)c1 | inactive: -5.3%
33 | Cc1ccc(C)c(Cn2c(SCC(=O)N(C)Cc3ccccc3)nc3ccccc32)c1 | inactive: 8.56%
34 | CCOc1ccc(-c2cc(C(=O)N3CCN(c4cccc(C)c4)C(C)C3)c3ccccc3n2)cc1 (stereo not drawn) | inactive: 0%
35 | CCc1ccccc1NC(=O)C(=O)NCC(c1cccnc1)N1CCc2ccccc21 (stereo not drawn) | inactive: 13%
36 | Cc1ccc(-c2nnc(Nc3ccc(S(N)(=O)=O)cc3)c3ccccc23)cc1S(=O)(=O)N1CCOCC1 | inactive: 12.4%
37 | CC(NC(=O)c1cccc(NC(=O)c2nsc3ccccc23)c1)c1ccccc1 (stereo not drawn) | inactive: 0%
38 | COc1ccc2c(c1)Cc1sc(NC(=O)c3cccc(F)c3)nc1-2 | inactive: -1.95%
39 | CCCC(=O)Nc1cc(-c2nc3cccnc3s2)ccc1C | inactive: -10.9%
40 | CCc1cccc(NC(c2nnc(-c3ccccc3)o2)c2ccc(F)cc2Cl)c1 (stereo not drawn) | inactive: -29.7%
41 | CCOC(=O)c1ccc(NC(=O)C2CC(=O)N(c3ccc(C(C)C)cc3)C2)cc1 (stereo not drawn) | inactive: 1.19%
42 | COc1ccc(C(=O)Nc2ccc3oc(-c4ccc(OC)cc4)nc3c2)cc1 | inactive: -9.43%
43 | Cc1cccc(NC(=O)CCNS(=O)(=O)c2cccc3nonc23)c1 | inactive: -19.3%
44 | CC(=O)Nc1ccc(S(=O)(=O)NC2(C(F)(F)F)C(=O)Nc3c2c(=O)[nH]c(=O)n3-c2ccc(C)c(C)c2)cc1 (stereo not drawn) | inactive: -1.53%
45 | CCOc1ccc(C(=O)c2cn(Cc3ccc(OC)cc3)c3cc(OC)c(OC)cc3c2=O)cc1 | inactive: -8.59%
46 | CCOc1ccc(NS(=O)(=O)c2ccc3[nH]cc(C(=O)NC4CCCC4)c(=O)c3c2)cc1 | inactive: 0.712%
47 | Cc1ccc(C(=O)CSc2nnc(-c3ccccc3)n2-c2ccccc2)cc1 | inactive: 9.09%
48 | COc1cccc(-n2c(-c3ccco3)nc3c(cnn3-c3ccc(C)cc3)c2=O)c1 | inactive: -7.67%
49 | CCN1c2ccccc2-c2nc(SCC(=O)Nc3c(C)cc(C)cc3C)ncc2S1(=O)=O | inactive: 3.44%
50 | CCOc1ccc(NC(=O)CSc2ncc3c(n2)-c2cc(Cl)ccc2N(C)S3(=O)=O)cc1 | inactive: 3.24%

Row | SMILES | activity change, negative = inhibition
51 | Cc1ccc2cccc(NC(=O)C(C)Oc3ccc(C)c(C)c3)c2n1 (stereo not drawn) | inactive: -10.5%
52 | CC1=C(C(=O)NCc2ccc(C)cc2)C2(CCCCC2)OC1=O | inactive: 15.4%
53 | O=C(Nc1cc(Cl)ccc1Cl)C1(c2cccs2)CCOCC1 | inactive: -0.626%
54 | Cc1noc(Cn2c(=O)c3ccccc3n(CC(=O)Nc3ccc(Cl)cc3)c2=O)n1 | inactive: -0.0429%
55 | COc1ccc(Nc2ncc(C(=O)Nc3cc(Cl)c(OC)cc3OC)c3ccccc23)cc1 | inactive: -4.21%
56 | CN(C)c1ccc(C(CNS(=O)(=O)c2ccc(F)cc2)N2CCCC2)cc1 (stereo not drawn) | inactive: 0.528%
57 | O=C(CCS(=O)(=O)c1nc(-c2ccc3c(c2)OCO3)cc(C(F)(F)F)n1)Nc1ccc(F)c(Cl)c1 | inactive: -3.9%
58 | COc1ccc(NC(=O)CCNS(=O)(=O)c2cccc3nonc23)c(OC)c1 | inactive: 8.04%
59 | CC(=O)N1CCCc2cc(S(=O)(=O)N3CCCC(C(=O)Nc4cccc(F)c4)C3)ccc21 (stereo not drawn) | inactive: -13.4%
60 | O=C(Nc1ncc(Cc2ccc(Cl)cc2)s1)c1ccc2c(c1)CC(c1ccccc1)OC2=O (stereo not drawn) | inactive: -1.01%
61 | COc1cccc(CNC(=O)CSc2nc3ccccc3nc2Cc2ccc(C)cc2)c1OC | inactive: -4.55%
62 | CCCn1c2ccccc2c2cnn(CC(=O)NCCc3ccc(OCC)c(OCC)c3)c(=O)c21 | inactive: -1.54%
63 | Cc1ccc(NC(=O)CCNS(=O)(=O)c2ccc3c(c2)CCN3C(=O)C2CC2)c(Cl)c1 | inactive: -11.2%
64 | CCOC(=O)CNC(=O)c1cc2c(=O)n3cccc(C)c3nc2s1 | inactive: 8.4%
65 | COc1cccc(C2CC(=O)Nc3c2c(=O)nc2c(C)cccn32)c1 (stereo not drawn) | inactive: -0.892%
66 | CCCCNC(=O)CCn1c(=O)c2cccn2c2ccc(F)cc21 | inactive: 2.66%
67 | Cc1noc(Cn2c(=O)c3ccccc3n(CC(=O)Nc3cccc(Cl)c3C)c2=O)n1 | inactive: -5.07%
68 | CC1CCN(c2nn3c(=O)c(C(=O)NCc4ccc(Cl)cc4)cnc3s2)CC1 | inactive: 1.77%
69 | CC(=O)N1CCCc2cc(S(=O)(=O)N(C)CC(=O)Nc3ccc(C)cc3C)ccc21 | inactive: -2.22%
70 | N#Cc1nc(/C=C/c2ccc(F)cc2)oc1N1CCN(c2ccccc2)CC1 | inactive: 2.36%
71 | CC(C)c1ccc(OCC(=O)Nc2c(Cl)ccc3nsnc23)cc1 | inactive: -10%
72 | Cc1cccc(-c2noc(-c3cccnc3NCc3ccco3)n2)c1 | inactive: 0.403%
73 | COc1cccc(C2c3c(oc4ccc(C)cc4c3=O)C(=O)N2CCCN2CCOCC2)c1OC (stereo not drawn) | inactive: -5.85%
74 | O=C(Nc1cccc(NC(=O)c2ccc(Br)o2)c1)c1ccccc1 | inactive: 2.08%
75 | COc1ccc(-n2c(=O)c3c4c(sc3n(Cc3cc(C)ccc3C)c2=O)CN(C(C)=O)CC4)c(OC)c1 | inactive: -4.59%

Row | SMILES | activity change, negative = inhibition
76 | Cc1ccccc1-n1cc(-c2ccccc2)nc1SCC(=O)Nc1ccc(F)cc1 | inactive: -4.68%
77 | CCCn1c2ccccc2c2cnn(CC(=O)N3CCC(C(=O)OCC)CC3)c(=O)c21 | inactive: 4.05%
78 | Cc1ccc(CNc2nc3ccccc3n3c(C)nnc23)cc1 | inactive: -3.88%
79 | COc1ccc(C2C(=O)N(C3CCC(C)CC3)CC(=O)N2Cc2ccccc2Cl)cc1OC (stereo not drawn) | inactive: -0.492%
80 | Cc1ccc(Sc2c(C)nn(C(=O)COc3ccc(F)cc3)c2C)cc1 | inactive: -0.0648%
81 | O=C(NCCN1CCN(c2ccccc2)CC1)Nc1ccccc1Br | inactive: -4.65%
82 | Cc1ccc(N2CC(NC(=O)c3ccc(S(=O)(=O)N4CCOCC4)cc3)CC2=O)cc1C (stereo not drawn) | inactive: -0.161%
83 | Cc1cccc(CNC(=O)C2CCN(c3nnc(-n4c(C)ccc4C)s3)CC2)c1 | inactive: 0.183%
84 | Cc1cc2oc(=O)c(CC(=O)O)c(C)c2c2occ(-c3ccc(F)cc3)c12 | inactive: -2.7%
85 | O=C(c1ccc2c(c1)OCCO2)N(Cc1cccnc1)c1nc2c(F)cccc2s1 | inactive: 0%
86 | Cc1cccc(-c2noc(CN(C(=O)c3ccccc3Cl)C(C)C)n2)c1 | inactive: -18.5%
87 | Cn1c(C(=O)NCCc2ccccc2)cc2c(=O)n3ccccc3nc21 | inactive: 4.14%
88 | COc1ccc(CCNC(=O)CCCn2c(=O)c3ccccc3n(Cc3ccc(F)cc3Cl)c2=O)cc1OC | inactive: -3.75%
89 | COc1ccc(Cn2c(CNS(=O)(=O)c3ccc4c(c3)CCCC4)nc3cccnc32)cc1 | inactive: -1.01%
90 | Cc1ccc(CNc2nc3ccccc3c3nc(-c4cccc(C)c4)nn23)cc1 | inactive: 1.47%
91 | CCCSc1oc(-c2cccs2)nc1S(=O)(=O)c1ccc(Cl)cc1 | inactive: -5.54%
92 | O=C(c1cnc(N2CCCCC2)c2ccccc12)N1CCN(c2ccccc2F)CC1 | inactive: -6.22%
93 | Cc1ccc2c(c1)c1c(c(=O)n(Cc3ccccc3)c(=O)n1Cc1cccc(C(F)(F)F)c1)n2C | inactive: -0.0152%
94 | COc1ccc(CNC(=O)CCc2c(C)nn(-c3ccc(N4CCCCC4)nn3)c2C)c(OC)c1 | inactive: -12.6%
95 | c1csc(C2=NC(c3ccncc3)=Nc3ccccc3N2)c1 | inactive: 1.22%
96 | Cc1ccc(-n2ncc(C(=O)NCCCN3CCN(c4cccc(Cl)c4)CC3)c2-n2cccc2)cc1 | inactive: -12.9%
97 | CC(=O)N1CCc2cc(CNS(=O)(=O)c3ccc(Br)s3)ccc21 | inactive: -1.75%
98 | CCOc1ccc(C(=O)NCCc2sc3nc(-c4ccc(Cl)cc4)nn3c2C)cc1OCC | inactive: 4.93%
